These results are taken from PMC4336329 (PLoS ONE, 2015).

Out of some 310,000 compounds screened, about 14,000 (4.5%) showed an effect of 50% or more. Effects have a minus sign here. The list shows a part of the results.
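Also: peak tail current of the secondary pulse compared with the same well before compound.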

The target in this assay is human ether-à-go-go-related gene (hERG) potassium channel (human, UniProt Q12809). As to the kind of experiment: primary screen, population patch clamp on CHO cells stably expressing hERG.
Chain of human ether-à-go-go-related gene (hERG) potassium channel (Q12809 whole entry, looked up): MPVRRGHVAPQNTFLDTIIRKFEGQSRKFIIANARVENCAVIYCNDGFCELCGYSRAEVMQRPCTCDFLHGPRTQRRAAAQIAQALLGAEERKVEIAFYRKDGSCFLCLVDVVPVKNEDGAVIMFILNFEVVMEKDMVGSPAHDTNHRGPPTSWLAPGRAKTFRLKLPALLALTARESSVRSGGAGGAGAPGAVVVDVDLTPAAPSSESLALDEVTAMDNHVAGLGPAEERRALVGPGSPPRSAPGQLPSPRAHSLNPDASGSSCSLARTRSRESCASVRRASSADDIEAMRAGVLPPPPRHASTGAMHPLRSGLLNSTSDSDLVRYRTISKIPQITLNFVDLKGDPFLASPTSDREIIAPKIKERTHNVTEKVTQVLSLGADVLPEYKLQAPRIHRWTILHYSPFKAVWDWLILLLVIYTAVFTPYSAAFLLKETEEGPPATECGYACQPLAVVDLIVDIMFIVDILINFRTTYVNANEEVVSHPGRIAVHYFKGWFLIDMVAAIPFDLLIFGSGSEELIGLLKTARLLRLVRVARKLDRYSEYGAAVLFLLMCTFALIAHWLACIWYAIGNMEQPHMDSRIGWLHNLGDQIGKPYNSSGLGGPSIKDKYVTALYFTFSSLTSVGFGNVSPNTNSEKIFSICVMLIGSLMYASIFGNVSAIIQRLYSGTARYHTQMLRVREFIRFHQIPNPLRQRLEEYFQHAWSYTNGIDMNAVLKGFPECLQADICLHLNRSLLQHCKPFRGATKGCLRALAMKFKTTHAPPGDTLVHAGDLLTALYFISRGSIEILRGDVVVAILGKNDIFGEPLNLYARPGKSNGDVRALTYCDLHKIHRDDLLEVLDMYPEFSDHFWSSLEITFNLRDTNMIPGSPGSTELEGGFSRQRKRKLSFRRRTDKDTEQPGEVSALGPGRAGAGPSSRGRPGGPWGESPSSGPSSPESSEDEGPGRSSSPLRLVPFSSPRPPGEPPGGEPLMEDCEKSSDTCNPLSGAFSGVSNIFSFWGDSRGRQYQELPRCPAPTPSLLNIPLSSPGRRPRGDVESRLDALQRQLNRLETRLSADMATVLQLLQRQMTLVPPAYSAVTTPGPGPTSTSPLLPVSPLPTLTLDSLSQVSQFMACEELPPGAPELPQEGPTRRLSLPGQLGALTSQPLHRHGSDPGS
Turning to `CCC(=O)N(Cc1ccccc1)c1ccccn1`, the “hERG current change (%, negative = inhibition) at 10uM” value is on record as 24%. Consider `Cc1cc(NS(=O)(=O)c2ccc(NC(=S)NC(=O)c3ccc(F)cc3)cc2)no1`, for which the “hERG current change (%, negative = inhibition) at 10uM” value was 2.07%. Regarding `CS(=O)(=O)N1CCC(C(=O)N2CCN(c3cccc(Cl)c3)CC2)CC1`, the “hERG current change (%, negative = inhibition) at 10uM” value stood at 8.32%.

In the case of `CC1(C)CC(=O)C2=C(C1)N(N1CCOCC1)C(N)=C(C#N)C2c1cccnc1` (stereo not drawn), the “hERG current change (%, negative = inhibition) at 10uM” value turned out to be 11.3%.

In the case of `Cc1ccc(OCCC(=O)Nc2ccc(S(=O)(=O)Nc3cc(C)nc(C)n3)cc2)cc1`, the “hERG current change (%, negative = inhibition) at 10uM” value was 1.18%. As for `COCC(C)NCc1ccc(C)cc1C` (stereo not drawn), the figure is -14.3%; as for `Cc1cc(NC(=O)CSCC(=O)N(C)Cc2ccc(F)cc2)no1`, 10.7%; as for `COc1ccc2c(c1)Sc1ccccc1N2CCN(C)C.O=C(O)C(=O)O`, -21.3%.

For `COc1ccc(OC)c(S(=O)(=O)Nc2ccc(Oc3ccccc3)cc2)c1`, the “hERG current change (%, negative = inhibition) at 10uM” value is -14%. For `CS(=O)(=O)N1CCC(C(=O)NCc2ccc3c(c2)OCO3)CC1`, the “hERG current change (%, negative = inhibition) at 10uM” value is listed as 18.9%. In the case of `NNc1nc(N)c2c(n1)-c1ccccc1CC21CCCC1`, the “hERG current change (%, negative = inhibition) at 10uM” value came out at 5.66%.

Turning to `Cc1cc(N2CCN(c3ccccc3)CC2)nc(-n2nc(C)cc2C)n1`, the “hERG current change (%, negative = inhibition) at 10uM” value is -63.2%.

As to `Cc1ccc(-c2nc3ccccc3[nH]2)s1`, the “hERG current change (%, negative = inhibition) at 10uM” value is given as -8.7%. As for `COc1ccc(N(C)C(=O)Cc2c(C(=O)O)n(C)c3ccccc23)c(OC)c1`, the figure is 32.9%; as for `CC12CC3CC(C)(C1)CC(CN)(C3)C2.Cl`, 2.34%; as for `C=CCC(C(=O)OC)(C(=O)OC)c1ccccc1[N+](=O)[O-]`, 10.3%. For the compound `COc1ccccc1-c1nnc(SC/C(O)=C(\C#N)c2nc3ccccc3[nH]2)n1C1CCCCC1`, the “hERG current change (%, negative = inhibition) at 10uM” value was -2.08%. On to `CC(C)CNC(=O)[C@H](Cc1ccccc1)NC(=O)c1ccco1`, for which the “hERG current change (%, negative = inhibition) at 10uM” value is -6.82%. The same measure for `Cc1ccc(-c2nnc(Nc3ccccc3)c3ccccc23)cc1S(=O)(=O)NCC1CCCO1` (stereo not drawn): -40.5%. As for `N#Cc1cnn2c(C(F)(F)F)c3c(nc12)CCCC3`, the “hERG current change (%, negative = inhibition) at 10uM” value is recorded as -5.18%. For `Cc1cc(NS(=O)(=O)c2ccc(NC(=O)CN3C(=O)c4ccccc4C3=O)cc2)nc(C)n1`, the “hERG current change (%, negative = inhibition) at 10uM” value is listed as 6.65%.

As to `CC(=O)/C(=C\N(C)C)Sc1ccc(C)cc1`, the “hERG current change (%, negative = inhibition) at 10uM” value was found to be 32.3%. In the case of `CCOC(=O)CN1C(=O)C(O)(CC(=O)c2cccc(OC)c2)c2ccccc21` (stereo not drawn), the “hERG current change (%, negative = inhibition) at 10uM” value was found to be 5.13%. The same measure for `Cc1ccc(C(=O)Oc2coc(CSc3nnc(NC(=O)C4CC4)s3)cc2=O)cc1`: 16.6%; for `COc1ccc(CN2CCCCCC2)cc1Br`: -11.1%. With `COc1ccc2cc3c(N)nn(C(=O)Cc4ccc(Cl)cc4)c3nc2c1`, the “hERG current change (%, negative = inhibition) at 10uM” value was found to be 11.2%. As for `Cc1cccc(OCCCC(=O)Nc2ccc(S(=O)(=O)Nc3ncccn3)cc2)c1C`, the figure is 17.2%. In the case of `COc1ccc(CNC(=O)CCNS(=O)(=O)c2ccc(NC(C)=O)cc2)cc1OC`, the “hERG current change (%, negative = inhibition) at 10uM” value is given as 8.05%. `Cc1ccc(-c2noc(COc3ccc4c(c3)OCO4)n2)cc1`: the “hERG current change (%, negative = inhibition) at 10uM” value is reported as 6.96%.

`CCOC(=O)C1=c2/c(=C/c3ccncc3)c(N)c(C(=O)OC)n2C(=O)C(c2ccncc2)S1` (stereo not drawn): the “hERG current change (%, negative = inhibition) at 10uM” value was found to be 1.36%.

`COC(=O)c1c(C(=O)OC)c(-c2cccc(C)c2)n2c1CS(=O)C2` (stereo not drawn): the “hERG current change (%, negative = inhibition) at 10uM” value amounted to 12.1%. Turning to `COC(=O)CNc1cccc(C(F)(F)F)c1`, the “hERG current change (%, negative = inhibition) at 10uM” value was determined as 4.99%. Consider `COc1cccc(CC2CC(=O)N(CCc3ccc4c(c3)OCO4)C2=O)c1` (stereo not drawn), for which the “hERG current change (%, negative = inhibition) at 10uM” value was -19.1%.

Turning to `O=C(Nc1ccc(N2CCN(C(=O)c3ccco3)CC2)c(Cl)c1)c1cc2ccccc2o1`, the “hERG current change (%, negative = inhibition) at 10uM” value is recorded as -67.9%. For the compound `Cc1ccc2[nH]cc(CCCN3C(=O)c4ccccc4C3=O)c2c1`, the “hERG current change (%, negative = inhibition) at 10uM” value was -51.4%.

Take `COc1ccc(CN(CC2CCC(C(=O)O)CC2)C(=S)Nc2cc(Cl)ccc2OC)cc1` (stereo not drawn): the “hERG current change (%, negative = inhibition) at 10uM” value turned out to be 27.4%. `CC(C)CN1CCNC(=O)C1CC(=O)NCCCN1CCCc2ccccc21` (stereo not drawn): the “hERG current change (%, negative = inhibition) at 10uM” value was found to be 8.85%. The same measure for `CCOC(=O)CSc1nn(C)c(=S)s1`: 0.202%. Take `O=C(CCSc1ccc(Cl)cc1)Nc1cccnc1`: the “hERG current change (%, negative = inhibition) at 10uM” value was -11.6%.

As for `COc1ccc(C(=O)N2CCCN(C)CC2)cc1S(=O)(=O)N(C)Cc1ccccc1`, the “hERG current change (%, negative = inhibition) at 10uM” value is on record as -23.3%. `COc1ccc(NC(=S)Nc2ccccc2C(F)(F)F)cc1`: the “hERG current change (%, negative = inhibition) at 10uM” value is reported as 17.2%. For `COc1ccc(-c2cc(-c3ccccc3O)[nH]n2)cc1OC`, the “hERG current change (%, negative = inhibition) at 10uM” value is 8.6%. With `COc1ccc(C(=O)COC(=O)/C=C/c2ccc(S(=O)(=O)Nc3cccc(S(N)(=O)=O)c3)cc2)cc1`, the “hERG current change (%, negative = inhibition) at 10uM” value is on record as 4.88%. With `Cc1c(C(=O)NCc2ccccc2)oc2ccc(S(=O)(=O)N3CCCC3)cc12`, the “hERG current change (%, negative = inhibition) at 10uM” value was determined as 2.65%. Regarding `O=C1OCCC1Sc1nnc(-c2ccc(Br)cc2)o1` (stereo not drawn), the “hERG current change (%, negative = inhibition) at 10uM” value worked out at 6.1%.
